In a collection of fitness landscapes (doi:10.1126/science.1257360):
This is one part of the list.

B1: PhoQ; a variant is named by its letters at X, in order, P23837 (parent)
chain: MKKLLRLFFPLSLRVRFLLATAAVVLVLSLAYGMVALIGYSVSFDKTTFRLLRGESNLFYTLAKWENNKLHVELPENIDKQSPTMTLIYDENGQLLWAQRDVPWLMKMIQPDWLKSNGFHEIEADVNDTSLLLSGDHSIQQQLQEVREDDDDAEMTHSVAVNVYPATSRMPKLTIVVVDTIPVELKSSYMVWSWFIYVLSANLLLVIPLLWVAAWWSLRPIEALAKEVRELEEHNRELLNPATTRELTSLVRNLNRLLKSERERYDKYRTTLTDLTHSLKTPLXXLQXXLRSLRSEKMSVSDAEPVMLEQISRISQQIGYYLHRASMRGGTLLSRELHPVAPLLDNLTSALNKVYQRKGVNISLDISPEISFVGEQNDFVEVMGNVLDNACKYCLEFVEISARQTDEHLYIVVEDDGPGIPLSKREVIFDRGQRVDTLRPGQGVGLAVAREITEQYEGKIVAGESMLGGARMEVIFGRQHSAPKDE

Variants of: B1
Assay: enrichment ratio after two sorts for PhoP signalling (ratio (wild type AVST 3.29)); higher = more functional
Conditions: with PhoP (E. coli)

Variant	enrichment ratio
FCHG	≤ 0.25
EPPP	≤ 0.25
SNDK	≤ 0.25
NKNK	≤ 0.25
HTFS	≤ 0.25
EEWF	≤ 0.25
TRMF	≤ 0.25
GQGH	≤ 0.25
DAIA	≤ 0.25
ACLQ	11.6
KECC	≤ 0.25
RYFI	≤ 0.25
SIYP	≤ 0.25
FCWP	≤ 0.25
VADD	≤ 0.25
HDKS	≤ 0.25
WRPK	≤ 0.25
VSPM	≤ 0.25
NVLL	≤ 0.25
LHAT	≤ 0.25
VEKG	≤ 0.25
FYMC	≤ 0.25
EGCA	≤ 0.25
FDHH	≤ 0.25
QADS	3.89

Variant	enrichment ratio
NDLN	≤ 0.25
LKIS	≤ 0.25
ICHY	≤ 0.25
SRIH	≤ 0.25
TERP	≤ 0.25
ALPP	≤ 0.25
RTVW	≤ 0.25
FLCP	≤ 0.25
VHSM	≤ 0.25
HKCI	≤ 0.25
HIWR	≤ 0.25
TKMA	20.5
NPMT	≤ 0.25
VWRS	≤ 0.25
WYLA	≤ 0.25
VQMF	≤ 0.25
KMCT	≤ 0.25
HWIC	≤ 0.25
PPRM	≤ 0.25
KEPA	≤ 0.25
MGCD	≤ 0.25
SIWH	6.19
PTMW	≤ 0.25
WYWW	≤ 0.25
FTID	≤ 0.25

Variant	enrichment ratio
FPMD	≤ 0.25
KACM	≤ 0.25
IDML	≤ 0.25
LESR	≤ 0.25
SYKF	≤ 0.25
WGAQ	≤ 0.25
LGEM	≤ 0.25
TDAL	4.89
PLHC	≤ 0.25
DVDI	≤ 0.25
WQEH	≤ 0.25
LICY	≤ 0.25
TFYS	≤ 0.25
KCYA	≤ 0.25
HSGD	≤ 0.25
WQAC	≤ 0.25
QMQH	≤ 0.25
DWCV	≤ 0.25
DHNP	≤ 0.25
IFNP	≤ 0.25
YTWR	≤ 0.25
HERQ	≤ 0.25
RGIP	≤ 0.25
GARM	≤ 0.25
CTVL	≤ 0.25

Variant	enrichment ratio
QTSH	7.41
WYWK	≤ 0.25
SCVG	5.95
LQWT	≤ 0.25
ITKW	≤ 0.25
LYQN	≤ 0.25
CLWF	≤ 0.25
AEAT	47.1
LPDV	≤ 0.25
HKVY	≤ 0.25
MEPS	≤ 0.25
GVPP	≤ 0.25
LGAD	≤ 0.25
VLAG	≤ 0.25
AKTY	1.53
LGGC	≤ 0.25
GRLY	≤ 0.25
RYLA	≤ 0.25
DGPH	≤ 0.25
RKHM	≤ 0.25
GMPC	≤ 0.25
HHGN	≤ 0.25
YYNR	≤ 0.25
LMFE	≤ 0.25
MRRQ	≤ 0.25

Variant	enrichment ratio
TKNQ	≤ 0.25
YQYG	≤ 0.25
FWFI	≤ 0.25
AQQR	≤ 0.25
IIMN	≤ 0.25
PNHI	≤ 0.25
AWLP	≤ 0.25
ARVD	≤ 0.25
KCTP	≤ 0.25
VQFD	≤ 0.25
MDNH	≤ 0.25
SCYL	0.304
ATCM	2.59
FGVW	≤ 0.25
SIII	≤ 0.25
TWYP	0.76
IRSG	≤ 0.25
RTAC	≤ 0.25
PMAR	≤ 0.25
IIRH	≤ 0.25
RTYK	≤ 0.25
VDHK	≤ 0.25
ANVR	≤ 0.25
EELD	≤ 0.25
MRWC	≤ 0.25

Variant	enrichment ratio
HRSP	≤ 0.25
HIKL	≤ 0.25
PDWY	≤ 0.25
VRQK	≤ 0.25
QGHD	≤ 0.25
LWCE	≤ 0.25
QHGK	≤ 0.25
IESL	≤ 0.25
SIKN	≤ 0.25
RTRM	≤ 0.25
PNWI	≤ 0.25
SCEV	≤ 0.25
MTHV	≤ 0.25
RIAQ	≤ 0.25
EGSM	≤ 0.25
PFRM	≤ 0.25
HCPG	≤ 0.25
QEYT	20.9
YYVL	≤ 0.25
KAGQ	≤ 0.25
IAYG	≤ 0.25
VMTD	≤ 0.25
WKQW	≤ 0.25
ITAQ	≤ 0.25
GWMG	≤ 0.25

Variant	enrichment ratio
QSKH	≤ 0.25
VMYT	≤ 0.25
PMCG	≤ 0.25
IKNR	≤ 0.25
TTHD	≤ 0.25
FWPV	≤ 0.25
TMNH	0.545
KNIT	≤ 0.25
QQTG	≤ 0.25
ERFA	≤ 0.25
DDQT	≤ 0.25
WVRS	≤ 0.25
LTNR	≤ 0.25
VELI	1.31
LHPW	≤ 0.25
AMLE	≤ 0.25
TLNR	≤ 0.25
PHGC	≤ 0.25
WFGY	≤ 0.25
ARAV	≤ 0.25
YEVQ	≤ 0.25
LKVQ	≤ 0.25
EPHT	≤ 0.25
ISTR	≤ 0.25
FNSR	≤ 0.25

Variant	enrichment ratio
LTFI	≤ 0.25
RGYH	≤ 0.25
IRAT	≤ 0.25
FFGT	≤ 0.25
NEVT	≤ 0.25
KSLY	≤ 0.25
ADMA	≤ 0.25
SNFK	≤ 0.25
HTFY	≤ 0.25
PGDI	≤ 0.25
IFHP	≤ 0.25
SCYP	0.781
FSLI	12.9
NWHD	≤ 0.25
PWPK	≤ 0.25
GNCL	18.1
GCDS	≤ 0.25
DTIP	≤ 0.25
DIKR	≤ 0.25
KHPD	≤ 0.25
